Measured values reported in PubChem BioAssay AID504832 (National Center for Advancing Translational Sciences (NCATS), 2011).
In all, about 310,000 compounds went through this assay and about 18,000 (5.8%) were called active. This list was built around the results that the source calls inconclusive (neither active nor inactive); the mix of calls is not that of the screen. Calls follow the shape of the dose curve; as a rule, active = well fitted inhibition curve with a large enough effect; inconclusive = small, poorly fitted or top-dose-only effect, or another doubt; inactive = no such curve, though single readings can be large or run the other way. Potencies of inconclusive entries are left out as doubtful fits.

test: Primary qHTS for delayed death inhibitors of the malarial parasite plastid, 48 hour incubation; settings: P. falciparum luciferase growth in erythrocytes; series mostly up to 28.7 µM
Summary of the method: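 First compound was added to culture medium, then infected red cells at 0.1% parasitemia and 2% hematocrit (final). After incubation at 37 C under 5% CO2, luciferase detection reagent was dispensed and light output recorded.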
% is scaled to controls: 0 for no effect and ±100 for the full control effect; potency is read from the fitted curve at half-maximal effect; tags tell the direction and shape of the fitted curve.

SMILES	Potency	activity change, negative = inhibition
COc1cc(NC(=S)NC(=O)c2c(OC)cccc2OC)ccc1NC(=O)c1cccs1	active: 5.22 µM	
O=C(N/N=C/c1cc2c(cc1[N+](=O)[O-])OCO2)c1cccnc1	inconclusive [inhibitor, single point]	
CCCCOc1ccc(C(O)(CCN2CCOCC2)c2ccccc2)cc1 (stereo unspecified)	inconclusive [inhibitor, single point]	
CCCCCN(C(=O)CCC(=O)OCc1cc(C(C)=O)ccc1OC)c1c(N)n(CCCC)c(=O)[nH]c1=O	inconclusive [inhibitor, single point]	
Cc1cccc(-n2c(N)c(-c3nc4ccccc4n3C)c3nc4ccccc4nc32)c1	active: 10.4 µM	
CC[n+]1c(/C=C/N(C)c2ccccc2)sc2ccc(Cl)cc21	active: 0.104 µM	
COc1ccc(-n2c(C)ccc2-c2ccccc2)cn1	inconclusive [inhibitor, full curve, poor fit]	
CCOC(=O)c1c(C)c(C(=O)N2CCc3ccccc3C2)c(C)n1CC	inconclusive [inhibitor, full curve, poor fit]	
O=C(NCC(c1cccs1)N1CCOCC1)c1cn(-c2ccccc2)nc1-c1ccc(Cl)cc1 (stereo unspecified)	inconclusive [inhibitor, single point]	
Cc1ccc(S(=O)(=O)Nc2cccc(Cl)c2)cc1NC(=O)c1cccnc1	inconclusive [inhibitor, single point]	
Cc1ccccc1OCC(=O)Nc1cccc(Cl)c1C	inactive	
O=S(=O)(c1c(F)cccc1F)N1CCN(Cc2c(O)ccc3ccccc23)CC1	inconclusive [inhibitor, single point]	
CC1CC(=O)N(CC(=O)Nc2ccc(Br)cc2)c2ccccc2S1(=O)=O (stereo unspecified)	inactive	
CCS(=O)(=O)CCSc1nc2c(cc1C#N)CCCC2	inactive	
Cc1ccc(NC(=O)c2cc(-c3ccc(C)c(C)c3O)n[nH]2)cc1C	inconclusive [inhibitor, full curve, poor fit]	
COCCOC(=O)c1c(NC(=O)CN2CCc3ccccc32)sc(C(N)=O)c1C	inconclusive [inhibitor, partial curve, poor fit]	
COc1ccc(N2CCN(C(=O)c3ccc(Cn4nc(C)c([N+](=O)[O-])c4C)o3)CC2)cc1	inconclusive [inhibitor, single point]	
Cc1cccc(NC2=NCC(=O)N2CCc2ccccc2)c1	inconclusive [inhibitor, single point]	
O=S1(=O)[C@H]2C[C@@H]3CC[C@]2(CN1Cc1cccc(F)c1)O3	inactive	
CCOC(=O)c1c(NC(=O)CC2SC(N)=NC2=O)sc2c1CCC(C)C2 (stereo unspecified)	inconclusive [inhibitor, single point]	
CC(C)CN(C(=O)CCC(=O)OCC(=O)c1ccc(F)c(F)c1)c1c(N)n(CC(C)C)c(=O)[nH]c1=O	inconclusive [inhibitor, single point]	
O=C(COC(=O)CCNS(=O)(=O)c1ccccc1F)Nc1nnc(-c2ccccc2)o1	inconclusive [inhibitor, partial curve, poor fit]	
CCOC(=O)C1(Cc2cccc(Cl)c2)CCCN(C(=O)c2cc(C(C)C)nn2C)C1 (stereo unspecified)	inconclusive [inhibitor, single point]	
CCc1ccc(C(=O)NNC(=O)OC)cc1	inconclusive [inhibitor, single point]	

SMILES	Potency	activity change, negative = inhibition
CCOC(=O)c1ccc(NC(=S)N(Cc2cccnc2)Cc2ccco2)cc1	inconclusive [inhibitor, partial curve, poor fit]	
O=C1COc2ccccc2N1Cc1ccccc1Cl	inconclusive [inhibitor, single point]	
O=C(Nc1cccc(S(=O)(=O)N2CCCCC2)c1)c1ccc([N+](=O)[O-])o1	inconclusive [inhibitor, partial curve, poor fit]	
Cc1ccc(C2=NN3C(=O)c4ccccc4C3C2)cc1 (stereo unspecified)	inconclusive [inhibitor, partial curve, poor fit]	
Cc1ccc(N)cc1-n1c(C)ccc1C	inconclusive [inhibitor, single point]	
N/C(=N\OC(=O)c1ccco1)c1ccc(Cl)cc1	inactive	
CCCn1nnc(NC(=O)C(c2ccccc2)c2ccccc2)n1	inactive	
CSc1ccc(CN(C)CC(=O)NC(=O)NC(C)(C)C)cc1	inconclusive [inhibitor, single point]	
CCC(=O)c1c[nH]c(C(=O)N2CCOCC2)c1	inactive	
CC1CCCN(C2(O)C(=O)Nc3ccc(Br)cc32)C1 (stereo unspecified)	inconclusive [inhibitor, single point]	
C=C(C)C(=O)OC1(C(F)(F)F)Oc2cc(C)ccc2NC1=O (stereo unspecified)	inconclusive [inhibitor, full curve, poor fit]	
C[C@H]1CC[C@H]2C(=O)N3[C@H](c4ccccc4Br)[C@@H](C)CC[C@H]3C(=O)N2[C@@H]1c1ccccc1Br	inconclusive [inhibitor, partial curve]	
Cc1ccnc(NC(=O)Nc2ccc(Br)cc2Cl)c1	inactive	
COc1ccc(OC)c(N=c2ssnc2Cl)c1	inactive	
CCOc1ccc(NS(=O)(=O)c2ccc(NC(=O)[C@@H]3CCCC[C@@H]3C(=O)O)cc2)cc1	inactive	
O=C1C2ON(c3ccccc3)C(c3ccccc3F)C2C(=O)N1c1ccccc1 (stereo unspecified)	inactive	
O=C(O)c1ccccc1-c1ccccc1C(=O)Nc1cccc(-c2nc3ccccc3o2)c1	inactive	
COC(=O)c1c(NC(NC(=O)C(C)C)C(Cl)(Cl)Cl)sc2c1CCC2 (stereo unspecified)	inconclusive [inhibitor, single point]	
COC(=O)C1=C(C)N(c2cccc(Cl)c2)C(=O)C1	inconclusive [inhibitor, single point]	
CC12CC(NC(=O)N1c1ccc(C(=O)N3CCN(c4ccccn4)CC3)cc1)c1ccccc1O2 (stereo unspecified)	inactive	
C=CCN(CC=C)C(=O)COn1nnc2ccc(S(=O)(=O)N3CCOCC3)cc21	inactive	
CC(C)CN(CC(C)C)C(=O)Nc1ccccc1F		inactive: 0.952% [at 5.75 µM]
COCCN(Cc1nc2ccccc2c(=O)[nH]1)C(=O)COc1ccccc1-c1ccccc1	inconclusive [inhibitor, partial curve, poor fit]	
N#Cc1ccccc1NC(=O)Nc1cccs1	inconclusive [inhibitor, single point]	

SMILES	Potency	activity change, negative = inhibition
Cc1ccc(C)c(N2CCN(C(=O)CN3C(=S)NC(C)(C)CC3C)CC2)c1 (stereo unspecified)	inconclusive [inhibitor, partial curve, poor fit]	
CC1CCCC(C)N1CCCNC(=O)C(=O)Nc1ccc2nc3n(c(=O)c2c1)CCCCC3 (stereo unspecified)	inactive	
CCOC(=O)c1nnn(-c2nonc2N)c1-c1cccc2ccccc12	active: 3.29 µM	
CCOC(=O)CSc1nnc(-c2cc(OC)c(OC)c(OC)c2)o1	inactive	
CCCC1CC(C)(/C(C)=N\NC(N)=S)OC1=O (stereo unspecified)	inactive	
CC(=O)c1ccc(N(CC(=O)NC2CCCCC2)C(=O)CNC(=O)c2ccco2)cc1	inactive	
CCOCCOC(=O)c1[nH]c2c(c1C)C(=O)CC(c1ccc(OC)c(OC)c1)C2 (stereo unspecified)	inconclusive [inhibitor, partial curve]	
O=C(Nc1ccc2nccnc2c1)Nc1ccccc1Cl	active: 8.28 µM	
CCCCN(C)S(=O)(=O)c1ccc(C(=O)Nc2nnc(CSC)o2)cc1	inconclusive [inhibitor, single point]	
Cc1ccccc1NS(=O)(=O)c1cc(C(=O)NCCC2=CCCCC2)ccc1C	inconclusive [inhibitor, single point]	
O=C(Nc1sc2c(c1C(=O)O)CCC2)c1cccc(Cl)c1	inactive	
O=c1c2ccccc2nc(CSc2ncnc3nc[nH]c23)n1-c1cccc(C(F)(F)F)c1	inconclusive [inhibitor, single point]	
CCN(CC)S(=O)(=O)c1cc(C(=O)OCC(=O)Nc2ccc(-c3nc4ccc(C)cc4s3)cc2)ccc1F	inactive	
COc1ccc(N(CC(=O)Nc2ccc3c(c2)OCCO3)S(=O)(=O)c2c(C)noc2C)cc1	inconclusive [inhibitor, single point]	
O=C(NCCSCc1ccco1)Nc1cc(Cl)cc(Cl)c1	inconclusive [inhibitor, partial curve, poor fit]	
O=C(Nc1nc2c(s1)CCc1ccccc1-2)c1cccs1	inconclusive [inhibitor, single point]	
COc1ccc(NC(=S)Nc2cccc(C(F)(F)F)c2)c(C)c1		inactive: -31.3% [at 5.75 µM]
Cc1nc(NC(=O)c2ccccc2)sc1C	inactive	
Cc1c(C(=O)N(C)CCn2ccnc2C)oc2c(F)cccc12	inactive	
COc1ccc(-c2nc3ccccn3c2NC2CCCCC2)cc1SC1CCCCC1	active: 11.7 µM	
COc1cc(-c2nc(CN(C)C(C)c3ccncn3)c(C)o2)ccc1F (stereo unspecified)	inconclusive [inhibitor, partial curve, poor fit]	
CCOc1ccc2c(c1)OC(c1ccccc1)(C(F)(F)F)NC2=O (stereo unspecified)	active: 1.65 µM	
CC1CCCCC1NC(=S)Nc1ccc(Cl)cc1Cl (stereo unspecified)	inconclusive [inhibitor, single point]	
